Measured values from PubChem BioAssay AID445 (National Center for Advancing Translational Sciences (NCATS), 2006).
Out of some 110,000 compounds screened, about 40 (0.04%) were called active. This list was built around the results that the source calls inconclusive (neither active nor inactive); the mix of calls is not that of the screen. Calls follow the shape of the dose curve; as a rule, active = well fitted curve in the direction sought with a large enough effect in the signal ratio (not every such curve was filed as active); inconclusive = small, poorly fitted or top-dose-only effect, or a change in a side signal; inactive = flat fitted curve, though single readings scatter; the % refers to the signal ratio. Where the call is inconclusive, the potency comes from a doubtful curve fit.

Assay: IkB Signaling;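 as to IkBa stabilization activation: 0% = basal untreated cells and 100% = reference inhibitor full response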
Conditions: ABC-DLBCL IkBa-CBG/CBR dual luciferase ratio (green luciferase fused to IkBa over red control in OCI-Ly3 lymphoma cells), 4 h; IkBa stabilization activation: at 57.1 µM (top of the series), scaled: untreated 0%, proteasome inhibitor 100% unless noted
Summary of the method: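 Curves were fitted separately to fusion (green), unfused (red) and ratio luminescence, then classed by r2, magnitude and activity. Cells: OCI-Ly3, 4 h compound plus doxycycline at 37C; 10 uM MG-132 defined full response.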
Potency is read from the fitted curve at half-maximal effect.

SMILES	IkBa stabilization activation	Potency
Cn1c(C(=O)N2COCC2(C)C)cc2c(=O)n3ccccc3nc21	inactive: -2.08%	–
CCSc1ncc(Cl)c(C(=O)Nc2nc3ccc(S(C)(=O)=O)cc3s2)n1	inconclusive: -1.28% [signal inhibitor]	–
COc1ccc(C2=NOC(C(=O)Nc3ccc(C)cc3)C2)cc1OC (configuration not stated)	inactive: -0.33%	–
Cc1ccc(NC(=O)C2CCCN(S(=O)(=O)c3cccc4nsnc34)C2)cc1C (configuration not stated)	inconclusive: -1.78% [signal inhibitor]	–
CC(C)[C@@H](CC(=O)N[C@@H]1CCNC[C@H]1C(=O)N[C@H](CC(=O)N[C@@H](CCC(=O)O)CC(=O)O)Cc1c[nH]c2ccccc12)NC(=O)C[C@H](CO)NC(=O)[C@@H]1CNCC[C@H]1N	inactive: -0.245%	–
N#C/C(=C(/O)COC(=O)Cc1c[nH]c2ccccc12)c1nc2ccccc2[nH]1	inconclusive: 10.6% [signal inhibitor]	–
CC(C)OCCCNc1ncnc2sc3c(c12)CCCC3	inconclusive: 0.136% [signal inhibitor]	–
Cn1c(=O)c(C(=O)Nc2ccccn2)c(O)c2ccccc21	inconclusive: 8.8% [signal inhibitor]	–
Cc1ccc(C)c(N2CCN(C(=O)CN3C(=O)COc4ccc(S(=O)(=O)N5CCCC5)cc43)CC2)c1	inconclusive: 0.36% [signal inhibitor]	–
CCc1cccc(NC(=O)CN(c2ccc(C)c(C)c2)S(=O)(=O)c2ccsc2C(=O)OC)c1	inconclusive: 0.69% [signal inhibitor]	–
CCOC(=O)c1ccc(N2C(=O)c3[nH]nc(-c4ccc(C)cc4)c3C2c2cccs2)cc1 (configuration not stated)	inconclusive: 0.856% [signal inhibitor]	–
CCCc1nc2nc(C)c(NS(=O)(=O)c3ccc(CC(C)C)cc3)c(=O)n2[nH]1	inconclusive: 3.68% [signal inhibitor]	–
O=S(=O)(c1ccc(Cl)cc1)c1nc(-c2cccs2)oc1SCc1ccc(F)cc1	inconclusive: -6.25% [signal inhibitor]	–
Cc1ccccc1-c1cc(NCc2cccnc2)ncn1	inactive: 1.22% [at 11.4 µM, scaled: untreated 0%, proteasome inhibitor 100%]	–
O=C(c1ccco1)N1CCC2(CC1)CCN(c1ccncc1)CC2	inactive: -1.78% [at 11.4 µM, scaled: untreated 0%, proteasome inhibitor 100%]	–
COc1ccc(NS(=O)(=O)c2cc(C)ccc2NC(=O)c2cc(C)oc2C)cc1	–	inconclusive: 12.6 µM [rising, partial curve]
COc1ccc(OC)c(NC(=O)C2Cc3ccccc3CN2S(=O)(=O)c2ccc(F)cc2)c1 (configuration not stated)	inconclusive: 1.31% [signal inhibitor]	–
COc1ccccc1N1CCN(c2nc(-c3ccccc3)cc(C(F)(F)F)n2)CC1	inactive: 0.143%	–
CCc1ccc(CNC(=O)c2cc3n(n2)CCCN(Cc2ccccc2)C3=O)cc1	inconclusive: 0.974% [signal inhibitor]	–
Cc1ccc(-n2ncc3c(NC(C)c4ccccc4)ncnc32)cc1 (configuration not stated)	inconclusive: 1.15% [signal inhibitor]	–
c1ccc(C(c2ccccc2)N2CCN(Cc3nnnn3C3CCCC3)CC2)cc1	inconclusive: 4.5% [signal inhibitor]	–
COc1ccc(NC(=O)Cn2c(=O)n(Cc3ccccc3OC)c(=O)c3cccnc32)cc1Cl	inconclusive: 0.271% [signal inhibitor]	–
O=C(O)Cn1c(=O)oc2cc(S(=O)(=O)N3CCOCC3)ccc21	inactive: 2.58%	–

SMILES	IkBa stabilization activation	Potency
COC(=O)CSc1nnc(CNc2ccc(F)cc2)o1	–	inconclusive: 25.1 µM [signal inhibitor, partial curve]
COc1ccc(C2(Nc3cccc(F)c3)C(=O)c3ccccc3C2=O)cc1	inconclusive: 0.535% [signal inhibitor]	–
COCCNC(=O)C1CCN(C(=O)c2cc3sccc3n2Cc2ccc(Cl)cc2)CC1	inconclusive: 2.95% [signal inhibitor]	–
O=c1ccc2cc(S(=O)(=O)Nc3ccc(F)c(Cl)c3)ccc2[nH]1	inactive: 6.51%	–
Fc1ccc(C(c2nnnn2Cc2ccco2)N2CCN(C3CCCCC3)CC2)cc1 (configuration not stated)	inactive: 0.803%	–
COc1ccc(CNC(=O)c2cc3c(=O)n(Cc4cccnc4)ccc3nc2C)cc1	inactive: -2.03%	–
COc1ccccc1CCNC(=O)Cc1ccc(NC(=O)N2CCSc3ncccc32)cc1	inconclusive: 0.169% [signal inhibitor]	–
Cc1ccc2oc(-c3ccc(Cl)c(NC(=O)Cc4ccccc4)c3)nc2c1	inconclusive: 6.41% [signal inhibitor]	–
CCCNS(=O)(=O)c1cc(-c2nn3c(C)nnc3c3ccccc23)ccc1C	–	inconclusive: 7.94 µM [signal activator]
CC(=O)N1CCCc2cc(S(=O)(=O)N3CCCC(C(=O)NCc4ccccc4Cl)C3)ccc21 (configuration not stated)	inconclusive: 1.34% [signal inhibitor]	–
CCOc1ccccc1NC(=O)C1CCN(S(=O)(=O)c2ccc3[nH]c(=O)oc3c2)CC1	inconclusive: 5.01% [signal inhibitor]	–
CC1CCc2c(cc(-c3ccccc3)n2-c2ccc(C(=O)NC(C)C)cc2)C1 (configuration not stated)	inactive: -0.172%	–
O=C(NCCN1CCN(c2ccccc2F)CC1)C1c2ccccc2C(=O)N2CCc3ccccc3C12 (configuration not stated)	inconclusive: 5.11% [signal inhibitor]	–
CC(C)(C)c1ccc(OCc2nc3ccccc3n2CCOc2ccccc2)cc1	inconclusive: 8.39% [signal inhibitor]	–
COc1cccc(NC(=O)CSc2nc3c([nH]c4ccccc43)c(=O)n2-c2cc(C)cc(C)c2)c1	inactive: 1.43%	–
Cc1cccc(NC(=O)CSc2ncc(-c3ccccc3)[nH]2)c1C	inconclusive: 11.3% [signal inhibitor]	–
CNC/C(Cl)=N/S(=O)(=O)c1ccc(C)cc1	inactive: 6.66% [at 11.4 µM, scaled: untreated 0%, proteasome inhibitor 100%]	–
CCC(C(=O)NCCc1ccccc1)n1nc(C)c2sc3ccccc3c2c1=O (configuration not stated)	inconclusive: 10.3% [signal inhibitor]	–
COc1ccc(C2=C(C)C(N3CCC(C(=O)Nc4ccccc4F)CC3)=NS2(=O)=O)cc1	inactive: 1.03%	–
CC(C)Nc1c(N)c(=O)oc2ccccc12	inconclusive: 15.2% [signal inhibitor]	–
CCOc1ccc2oc(=O)cc(CN3CCN(C(=O)c4ccc(OC)c(OC)c4)CC3)c2c1	inactive: -0.0244%	–
COCCn1nnnc1C(c1cc2cc(C)cc(C)c2[nH]c1=O)N1CCN(c2ccccc2F)CC1 (configuration not stated)	–	inconclusive: 15.8 µM [signal inhibitor, partial curve]
COCCOC(=O)C1=C(C)NC(=O)NC1c1cn(-c2ccccc2)nc1-c1cccs1 (configuration not stated)	inactive: -2.16%	–

SMILES	IkBa stabilization activation	Potency
COc1ccc(-c2cc(C(=O)NCc3ccccc3)no2)cc1OC	–	inconclusive: 10 µM [signal inhibitor, partial curve]
Cc1ccc(N2C(=O)c3n[nH]c(C)c3C2c2ccc(Cl)cc2)cc1 (configuration not stated)	inconclusive: 2.54% [signal inhibitor]	–
CCc1ccc(-n2c(=O)c3c4c(sc3n(Cc3cc(=O)n5c(C)cccc5n3)c2=O)CCC4)cc1	inactive: -1.16%	–
CCOC(=O)c1[nH]c2c(c1Cc1ccccc1OC)C(=O)CC(c1ccc(OC)cc1)C2 (configuration not stated)	inconclusive: 3.26% [signal inhibitor]	–
CCOc1ccc(C2=CS/C(=C(\C#N)c3nnc4n3CCCCC4)N2CC)cc1	inconclusive: 8.7% [signal inhibitor]	–
CCOC(=O)c1ccccc1NC(=O)Cn1ncc2c1-c1ccccc1OC2	inconclusive: -0.809% [signal inhibitor]	–
COc1ccccc1-c1nnc(NC(=O)c2ccc(S(=O)(=O)N(C)C)cc2)o1	inactive: 6.16%	–
Cc1ccc(NC(=O)Cn2nc(C(F)(F)F)c3c2CCCC3)cc1C	inconclusive: 6.67% [signal inhibitor]	–
N=C1N=C(N)c2cc3ccccc3cc21	–	inconclusive: 31.6 µM [rising, partial curve]
Cc1ccsc1C=Nc1ccc(O)cc1	–	inconclusive: 3.98 µM [rising, partial curve]
CCc1ccccc1NS(=O)(=O)c1ccc2nc(-c3ccccc3)[nH]c2c1	inconclusive: 2.73% [signal inhibitor]	–
CCOc1ccc2[nH]c(=O)c(C(c3nnnn3Cc3ccco3)N3CCCC(C)C3)cc2c1 (configuration not stated)	inconclusive: 5.4% [signal inhibitor]	–
COc1ccccc1Nc1nc(N)nc(CN2CCC(Cc3ccccc3)CC2)n1	–	inconclusive: 39.8 µM [signal inhibitor, single point]
CCC(C)NC(=O)c1c(C)oc2ncn(CC(C)C)c(=O)c12 (configuration not stated)	inactive: -3.34%	–
COc1ccc(-c2nc3ccccc3n3c(-c4cccc(C)c4)c4c(=O)n(C)c(=O)n(C)c4c23)cc1OC	inconclusive: 10.7% [signal inhibitor]	–
CC1CCN(S(=O)(=O)c2ccc(NC(=O)c3cccs3)cc2)CC1	inconclusive: 1.97% [signal inhibitor]	–
O=C(Cn1c(=O)n(CCc2ccccc2)c(=O)c2cccnc21)Nc1ccc(F)cc1	–	inconclusive: 25.1 µM [signal inhibitor]
c1ccc2c(c1)NC1(CCCCC1)n1c-2nc2ccccc21	inactive: 8.02%	–
CC1=C(C(=O)OC2CCCC2)C(c2c(Cl)cccc2Cl)CC(=O)N1 (configuration not stated)	inconclusive: 11.6% [signal inhibitor]	–
CCc1ccc2oc(=O)cc(CN3CCN(c4ccc(F)cc4)CC3)c2c1	inconclusive: 16.3% [signal inhibitor]	–
Cc1cc(S(=O)(=O)C(CNC(=O)c2ccc(F)c(F)c2)c2cccs2)ccc1F (configuration not stated)	inconclusive: 4.47% [signal inhibitor]	–
